Measured values taken from PubChem BioAssay AID2147 (National Center for Advancing Translational Sciences (NCATS), 2009).
The campaign covered roughly 230,000 compounds. About 3,600 (1.6%) were called active. Inconclusive means that the source gave no clear call. Such entries were picked first, then a sample of the others. The call rests on the fitted dose curve; in most records, active means well fitted inhibition curve with a large enough effect (not every such curve was filed as active); inconclusive means small, poorly fitted or top-dose-only effect, or another doubt; inactive means no such curve, though single readings can be large or run the other way. Potencies beside an inconclusive call are fits to weak or partial responses and may not hold up.

The compounds below were run against Lysine-specific demethylase 4E (Homo sapiens) (UniProt B2RXH2) (assay: qHTS Assay for Inhibitors of Human Jumonji Domain Containing 2E (JMJD2E)). Conditions: JMJD2E catalytic domain, FDH-coupled NADH fluorescence (FDH is formaldehyde dehydrogenase); series mostly up to 57.1 µM.
UniProt B2RXH2, sequence (B2RXH2 whole entry, looked up, the tested form may be a part): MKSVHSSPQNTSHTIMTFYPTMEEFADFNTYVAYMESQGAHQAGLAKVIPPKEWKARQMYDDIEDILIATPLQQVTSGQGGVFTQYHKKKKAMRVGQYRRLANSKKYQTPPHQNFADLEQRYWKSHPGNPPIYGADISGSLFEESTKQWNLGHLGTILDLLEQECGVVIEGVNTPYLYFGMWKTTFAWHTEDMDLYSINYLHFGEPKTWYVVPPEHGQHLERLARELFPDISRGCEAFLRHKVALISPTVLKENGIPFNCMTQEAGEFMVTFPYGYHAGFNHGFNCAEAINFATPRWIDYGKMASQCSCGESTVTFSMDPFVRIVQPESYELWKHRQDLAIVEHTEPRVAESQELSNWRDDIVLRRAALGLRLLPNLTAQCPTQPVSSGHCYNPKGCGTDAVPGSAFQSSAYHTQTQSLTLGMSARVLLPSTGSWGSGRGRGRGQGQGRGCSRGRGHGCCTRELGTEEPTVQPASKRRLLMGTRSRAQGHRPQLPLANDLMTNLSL
Further: nearly all actives have a fitted effect of over 50% in size.
Potency means the concentration at half of the fitted maximal effect; tags describe the fitted curve by direction and shape.

Row | Compound | Potency
1 | O=C(OCCCN1CCOCC1)c1ccc(O)c(O)c1 | active: 15.8 µM
2 | O=c1c(-c2ccccc2)c(O)c2cccc3c2n1CCC3 | inconclusive: 31.6 µM [inhibitor, single point]
3 | COC(=O)CCC/C=C1/SCC(NC(=O)c2ccccc2)C1=O (stereo unspecified) | inconclusive: 10 µM [inhibitor, partial curve]
4 | COc1ccccc1CN=C1NC(=O)C(CC(=O)Nc2ccc(C(C)=O)cc2)S1 (stereo unspecified) | inactive
5 | Nc1nccc(/C=C/c2c(F)cccc2Cl)n1 | inconclusive: 31.6 µM [inhibitor, single point]
6 | CN(C)c1ccc(/C=N/N2C(=S)SC(C)(C)C2N(O)C(=O)Nc2ccc([N+](=O)[O-])cc2)cc1 (stereo unspecified) | inactive
7 | COC(=O)C(=O)/C=C(\O)c1ccc(C)cc1 | inconclusive: 35.5 µM [inhibitor, partial curve]
8 | Cc1cc(C(F)F)n2ncc(C(=O)N3CCc4ccccc4C3)c2n1 | inactive
9 | CNC(=O)CN(C1CCCCC1)S(=O)(=O)c1ccc(OC)c(Cl)c1 | inactive
10 | CCOC(=O)c1c(NC(=O)c2ccc(N3C(=O)C4C5C=CC(C5)C4C3=O)cc2)sc2c1CCCC2 (stereo unspecified) | inconclusive: 31.6 µM [inhibitor, single point]
11 | CCN1CCN(c2nc(SC)nc3sc4c(c23)CC(C)(C)OC4)CC1 | inconclusive: 25.1 µM [inhibitor, partial curve]
12 | Nc1nc(C2CC2)c(Sc2sc(N)nc2C2CC2)s1 | inactive
13 | CSC(=NC#N)N1CCN(C(=NC#N)SC)CC1 | inconclusive: 14.1 µM [inhibitor, partial curve]
14 | O=C(CCc1ccccc1)NC(c1cccs1)c1cc(Cl)c2cccnc2c1O (stereo unspecified) | inactive
15 | Cc1ccc(-c2cc(-c3cccs3)[nH]n2)c(O)c1 | inactive
16 | CC(C)Cn1cc(C(=O)NCC2CCCO2)c2c3ccccc3n(C)c2c1=O (stereo unspecified) | inconclusive: 25.1 µM [inhibitor, partial curve]
17 | Cc1ccc2nc(/N=C(\N)NC(=O)NC3CCCCC3)nc(C)c2c1 | inactive
18 | CC1=C(C(=O)N2CCOCC2)C(c2cc(C)cs2)NC(=O)N1 (stereo unspecified) | inconclusive: 25.1 µM [inhibitor, single point]
19 | O=C(COc1cccc2c1CCN(Cc1ccccc1)C2=O)NCc1ccco1 | inactive
20 | COc1cccc(NC(=O)N(Cc2cc3cc(C)cc(C)c3[nH]c2=O)CC2COCCO2)c1 (stereo unspecified) | inconclusive: 39.8 µM [inhibitor, single point]
21 | Cc1cc2nc(-c3ccc(SCc4ccc(C(=O)O)cc4)nc3)[nH]c2cc1C | inconclusive: 3.16 µM [inhibitor, full curve]
22 | CC1(C)CC(=O)C(=Cc2cn(-c3ccccc3)nc2-c2ccc(Cl)cc2)C(=O)C1 | inactive
23 | O=C(NCCc1ccc(Cl)cc1)C1CCN(C(=O)c2sccc2-n2cccc2)CC1 | inactive
24 | CCOC(=O)Cn1c(=N)n(CCOc2cccc(C)c2)c2ccccc21 | inactive

Row | Compound | Potency
25 | O=C(Nc1cccc(-c2cn3ccccc3n2)c1)c1ccccc1 | inconclusive: 20 µM [inhibitor, partial curve, poor fit]
26 | O=C(Nc1ccc(-c2nc3ccccc3[nH]2)cc1)c1ccc2c(c1)OCO2 | inconclusive: 31.6 µM [inhibitor, partial curve]
27 | CCOc1ccc(-c2nc(CSCC(=O)NCCN3CCOCC3)c(C)o2)cc1 | inconclusive: 31.6 µM [inhibitor, partial curve]
28 | Clc1ccc(-c2nc3cnccn3c2NC2CCCC2)cc1 | inconclusive: 28.2 µM [inhibitor, partial curve]
29 | O=C(Nc1ccccc1C(=O)OCC(=O)N1CCc2ccccc2C1)c1ccco1 | inconclusive: 35.5 µM [inhibitor, partial curve]
30 | COC(=O)Cc1c(C)nc2nc(-c3ccc(C)cc3)[nH]n2c1=O | inconclusive: 25.1 µM [inhibitor, single point]
31 | O=C(O)CSC1CC(=O)N(c2cccc(Cl)c2)C1=O (stereo unspecified) | inactive
32 | COC(=O)CSc1ccc2c(N)c(C(=O)OC)sc2c1 | inconclusive: 28.2 µM [inhibitor, partial curve]
33 | CC(C)c1ccc(-c2c(C#N)c(N)nc3c2CCCCC3)cc1 | inconclusive: 20 µM [inhibitor, partial curve]
34 | CCCCOc1ccc(NC(=O)c2cnc(C)cn2)cc1 | inconclusive: 39.8 µM [inhibitor, single point]
35 | CCOC(=O)C(C)Sc1cc(CS(=O)(=O)c2ccccc2)nc(-c2ccccc2)n1 (stereo unspecified) | inactive
36 | Clc1nc(CN2CCCCC2)nc2sc3c(c12)CCC3 | inconclusive: 28.2 µM [inhibitor, single point]
37 | Cc1ccc(/C=C/C(=O)Nc2ncc(C)s2)o1 | inconclusive: 35.5 µM [inhibitor, single point]
38 | S=C(NCCC1=CCCCC1)Nc1ccccc1 | inconclusive: 25.1 µM [inhibitor, partial curve]
39 | COc1ccc(C2=NOC(COc3ccc4c(C)cc(=O)oc4c3)C2)c(OC)c1 (stereo unspecified) | inconclusive: 28.2 µM [inhibitor, partial curve]
40 | COc1ccc(NC(=O)Cn2c(-c3ccccc3)cn(-c3ccc(C)cc3)c2=O)cc1 | inconclusive: 39.8 µM [inhibitor, single point]
41 | CC1(OC(=O)C2CCCC2)C(=O)C=C2C=C(c3ccsc3)N(Cc3ccc4c(c3)OCO4)C=C2C1=O (stereo unspecified) | inconclusive: 7.08 µM [inhibitor, single point]
42 | COc1ccc(OC)c(C2C(C(=O)N(C)C)=C(C)Nc3nc4ccccc4n32)c1 (stereo unspecified) | inconclusive: 35.5 µM [inhibitor, single point]
43 | CC(C)CNC(=O)CSc1nc2scc(-c3ccccc3)c2c(=O)[nH]1 | inactive
44 | CCN(Cc1ccccc1)C(c1cc2ccc(C)cc2[nH]c1=O)c1nnnn1CCOC (stereo unspecified) | inconclusive: 39.8 µM [inhibitor, single point]
45 | CCOC(=O)c1sc2c(c1C)C(c1cccs1)C1=C(CCCC1=O)N2 (stereo unspecified) | inconclusive: 31.6 µM [inhibitor, partial curve]
46 | N#C/C(=C\c1ccc[nH]1)S(=O)(=O)c1ccccc1 | inactive
47 | CCn1c(COc2cccc3cccnc23)nnc1SCC(=O)OC | inconclusive: 35.5 µM [inhibitor, single point]
48 | NNc1ccc(S(=O)(=O)N2CCCCC2)cn1 | inconclusive: 28.2 µM [inhibitor, single point]

Row | Compound | Potency
49 | O=C1OCCN1CCNCc1cn(-c2ccc(F)cc2)nc1-c1ccccc1Cl | inactive
50 | C/C(CCN1CCCCc2nc(C)c(C)cc21)=N\O[C@H](C)c1cn([C@H](CO)Cc2ccccc2)nn1 | inconclusive: 28.2 µM [inhibitor, single point]
51 | COCCCN1C(=O)C(O)=C(C(=O)c2ccco2)C1c1ccccc1 (stereo unspecified) | inactive
52 | CCOC(=O)Cc1c(C)nc2c(-c3cccc(Br)c3)c[nH]n2c1=O | inconclusive: 28.2 µM [inhibitor, partial curve]
53 | Cc1[nH]n(-c2ccccc2)c(=O)c1/C=N/Nc1nncc(-c2ccccc2)n1 | inconclusive: 25.1 µM [inhibitor, partial curve]
54 | Cc1ccc(C2C3CN(C(C)C)CC=C3C(C#N)=C(N)C2(C#N)C#N)cc1 (stereo unspecified) | inconclusive: 25.1 µM [inhibitor, partial curve]
55 | CCOc1ccc(/C=N/NC(=O)CN2CCCCCCC2)cc1 | inconclusive: 35.5 µM [inhibitor, single point]
56 | NS(=O)(=O)c1ccc(N/N=C/c2ccc(O)c(O)c2O)c([N+](=O)[O-])c1 | active: 2.82 µM
57 | CCN(CC)c1ccc(NC(=O)Nc2ccccc2C(F)(F)F)cc1 | inconclusive: 14.1 µM [inhibitor, partial curve]
58 | CCn1c(=NC(=O)c2cccc(N3C(=O)CCC3=O)c2)sc2c(C)ccc(OC)c21 | inconclusive: 31.6 µM [inhibitor, partial curve]
59 | Brc1ccc(-c2nnc3ccc(N4CCN(c5ccccc5)CC4)nn23)cc1 | inconclusive: 7.08 µM [inhibitor, single point]
60 | CCOC(=O)C1CCCCN1Cc1ccc(C(F)(F)F)cc1 (stereo unspecified) | inconclusive: 39.8 µM [inhibitor, single point]
61 | Cc1nnc(N/N=C/c2ccc(-c3ccccc3F)o2)n1N | inconclusive: 1 µM [inhibitor, full curve, poor fit]
62 | O=C(O)c1ccccc1N=Cc1c(O)n(-c2nccs2)c(=O)c2ccccc12 | inconclusive: 28.2 µM [inhibitor, single point]
63 | COc1c(O)cc(O)cc1O | inactive
64 | COc1ccc(N2CCN(c3nc(-c4cccs4)nc4ccccc34)CC2)cc1 | inconclusive: 35.5 µM [inhibitor, single point]
65 | CCOc1ccc(C2NC(=O)C(C#N)=C(S)N2c2cccc(C)c2)cc1OC (stereo unspecified) | inactive
66 | CN(C)c1ccc(C(=O)Nc2cc(C(F)(F)F)ccc2-n2cncn2)cc1 | inconclusive: 28.2 µM [inhibitor, single point]
67 | CCOC(=O)c1c(C)[nH]c(C(=O)COC(=O)C2(C)CC2(Cl)Cl)c1C (stereo unspecified) | inactive
68 | Cc1ccc(O)c(-c2cc(C(=O)NCc3ccc4c(c3)OCO4)[nH]n2)c1 | inactive
69 | O=C(Nc1ccc2c(c1)OCCO2)C1CCC1 | inconclusive: 39.8 µM [inhibitor, single point]
70 | CCc1nc(N2CCCC2)c(C#N)c2c1CCCC2 | inconclusive: 28.2 µM [inhibitor, partial curve]
71 | Cn1nc2c(c1C(=O)N1CCCC(C(=O)c3cc(F)ccc3F)C1)CCCC2 (stereo unspecified) | inactive
